Data on one substance can be found in US8697661B2, “Use of spinosyns and spinosyn compositions against herpesviridae viral infections” (priority 2009, dated 2014).

This assay relates to P. falciparum strains 3D7, FAF6, Dd2, K1. The experiment in a line: 48 h SYBR green growth assay, chloroquine sensitive and chloroquine resistant strains. The note with it: ring stage parasites, parasitemia 2%.

Turning to Spinosad, the “activity against chloroquine sensitive and resistant strains” value is “equally active”.
